Test results: PubChem BioAssay AID493208 (National Center for Advancing Translational Sciences (NCATS), 2011)
Hit rate of the full screen: of about 44,000 compounds, about 340 (0.77%) were called active. Not shown: some 5% with an inconclusive outcome. Calls follow the shape of the dose curve; as a rule, active = well fitted inhibition curve with a large enough effect; inconclusive = small, poorly fitted or top-dose-only effect; inactive = flat fitted curve, though single readings scatter. The list shows a part of the results.

Assay: Acumen qHTS Assay for Inhibitors of the mTORC1 Signaling Pathway in MEF (Tsc2-/-, p53-/-) Cells: Sytravon; also: nearly all actives have a fitted effect of over 50% in size
Conditions: phospho-rpS6 immunofluorescence/PI, 24 h; series mostly up to 38.3 µM; activity change, negative = inhibition: at the top concentration
How it was run: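 Read-out: phospho-S6 Alexa-488 intensity over PI intensity per well, scored as % active cells using thresholds from rapamycin (7.5 nM) and DMSO controls. Tsc2-/-, p53-/- MEFs exposed to compound for 24 h; PI cell count recorded as viability.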

Activity change, negative = inhibition, inactive:
CCOc1ccc2c(c1)c(=O)c(C(=O)c1ccc(CC)cc1)cn2CC(=O)Nc1ccccc1C -5.71%
COc1ccc(N2CCN(c3cc(C)nc4nncn34)CC2)cc1 -1.3%
CCCN(C(=O)c1cc2c(=O)oc3ccccc3c2s1)c1ccccc1C -1.46%
CCC(C)NC(=O)Cn1c(=O)ccc2cc(S(=O)(=O)N3CCCC3)ccc21 (stereo not drawn) -11.7%
CCOC(=O)c1c(S(=O)(=O)N2CCC(C(=O)Nc3cccc(C)n3)CC2)c(C)n(C)c1C 0.395%
COCC(=O)N1c2nc(-c3ccco3)nn2C2(CCCCC2)[C@@H]2CCCC[C@@H]21 -1.83%
CCc1ccc2c(c1)c(=O)c(S(=O)(=O)c1ccccc1)cn2CC(=O)Nc1ccc(OC)cc1 -8.83%
CCOc1cc(CNC(=O)c2ccc3nc(CCc4ccccc4)oc3c2)ccc1OC -7.1%
O=C(CSc1nc2ccsc2c(=O)n1Cc1ccccc1Cl)NCc1ccc(Cl)cc1 -3.51%
O=C(CSc1nc2ccccc2n1Cc1c(F)cccc1Cl)N1CCN(c2ccc(F)cc2)CC1 -4.4%
COc1ccc(NC(=O)CN2C(=O)C3(SCC(=O)N3c3cccc(OC)c3)c3ccccc32)cc1 (stereo not drawn) 3.01%
Cc1ccc(S(=O)(=O)NCCc2csc3nc(-c4ccccc4C)nn23)cc1 2.01%
Cc1ccc(CNC(=O)C(C)n2ccc3cc(S(=O)(=O)N4CCCC4)ccc32)cc1 (stereo not drawn) -6.33%
O=C(c1ccc2c(Cl)c3c(nc2c1)CCCC3)N1CCN(c2ccccc2F)CC1 0.296%
O=C(Nc1nnc(SCc2cc(=O)n3cc(Cl)ccc3n2)s1)c1cccc(F)c1 -3.09%
COc1cccc(C2=CC(c3ccccc3F)n3c(nc4ccccc43)N2)c1 (stereo not drawn) 0.118%
COc1ccc(N2CC(NC(=O)c3c(F)cccc3Cl)CC2=O)cc1OC (stereo not drawn) 0.627%
CCC(C(=O)N1CCN(c2ccccc2)CC1)n1nc(C)c2sc3ccccc3c2c1=O (stereo not drawn) -6.66%
Cc1ccccc1NC(=O)c1cnc2sc(N3CCCC3)nn2c1=O -0.741%
CCOc1ccc(N2CC(c3nc4ccccc4n3CCOc3ccc(CC)cc3)CC2=O)cc1 (stereo not drawn) 5.53%
COc1ccc(Cn2c(=O)[nH]c3cc(C(=O)N4CCN(c5cc(Cl)ccc5C)CC4)ccc3c2=O)cc1 -2.87%
COc1ccccc1-c1noc(-c2ccc(NC(C)C)c([N+](=O)[O-])c2)n1 2.71%
COc1ccc(-c2nn(-c3cccc(F)c3)c3c2cnc2cc(OC)c(OC)cc23)cc1 0%
O=C(CCCCn1c(=O)c2ccccc2n(CC(=O)Nc2cccc(F)c2)c1=O)NCCc1ccccc1 -28.3%
COc1ccc2[nH]cc(S(=O)(=O)c3ccc(C)c(C)c3)c(=O)c2c1 1.26%
CCc1ccc(NC(=O)Cn2cc(S(=O)(=O)N3CCCC3)c(S(=O)(=O)N3CCCC3)c2)cc1 -9.58%
CC(C)NC(=O)CCN1C(=O)c2ccccc2Sc2ncccc21 0.126%
O=C(NC1CC(=O)N(c2ccc(F)cc2)C1)C1CC1 (stereo not drawn) 1.02%
Cc1ccc(NC(=O)Cn2nnc(C(=O)NCc3ccc4c(c3)OCO4)c2N)cc1Cl 2.69%
Cc1cc(C)cc(NC(=O)CCCc2nc(-c3ccccc3Cl)no2)c1 -7.81%
Cn1c(=O)n(CCCc2ccccc2)c(=O)c2c1nc1n2CCN1c1ccc(F)cc1 9.17%
CCOC(=O)c1cc2c(=O)n3ccccc3nc2n(Cc2ccco2)c1=NC(=O)c1ccc(OCC)cc1 0.91%
O=C(c1cc(-c2ccc(O)cc2)on1)N1CCN(c2ccccc2)CC1 -0.0981%
CCCCOC(=O)c1ccc(NC(=O)c2cnc3ccc(C)cn3c2=O)cc1 0.62%
CCn1c(=O)cc(OCC(=O)N2CCN(c3ccc(F)cc3)CC2)c2ccccc21 -12.5%
CCN(c1cccc(C)c1)c1ncnc2c1cnn2-c1cccc(Cl)c1 2.74%
COc1ccc(CN2COc3ccc4c(-c5ccccc5)cc(=O)oc4c3C2)cc1OC -0.676%
COc1cc(OC)c(N(C)C(=O)c2sc3nc4n(c(=O)c3c2C)CCCC4)cc1Cl 5.53%
Cc1nn(C(=O)c2ccc(Br)cc2)c(C)c1Sc1ccccc1 6.62%
Cc1ccc(NC(=O)Cn2c(=O)n(Cc3nc(-c4ccccc4)no3)c(=O)c3cc4c(cc32)OCO4)c(C)c1 0.0656%
COc1ccc(Cl)cc1NC(=O)CSC1=Nc2ccccc2C2=NC(CC(=O)NCc3cccs3)C(=O)N12 (stereo not drawn) -18.4%
COc1ccc(CCNC(=O)CSc2n[nH]c(-c3ccccc3Cl)n2)cc1OC -22%
O=C(NCc1ccccc1)c1cnc(N2CCCCC2)c2ccccc12 -0.0889%
COc1cccc(Nc2nc3ccc(C)cc3nc2-n2nc(C)cc2C)c1 -1.91%
COc1ccc(Nc2c(-c3ccccn3)nc3ccc(Cl)cn23)cc1 -0.126%
CCc1ccc(-n2c(=O)c3cccnc3n2CC(=O)NCc2ccc(C)cc2)cc1 -3.63%
Cc1ccc(NC(=O)C2=CC(c3ccc4c(c3)OCO4)=NS(=O)(=O)N2C)cc1 -1.82%
Cc1ccc(NC(=O)CSc2nc(-c3ccccc3Cl)nc3cc(=O)[nH]n23)c(C)c1 0.0761%
